Test results taken from patent US20250263469A1 (HOSPITAL FOR SICK CHILDREN, published 2025).

B1: MB 160 (other)
chain 1: DIQMTQSPSSLSASVGDRVTITCRASQSVSSWLAWYQQKPGKAPKLLIYAASSLQSGVPSRFSGSGSGTDFTLTISSLQPEDFATYYCQQGYTTPYTFGQGTKLEIKRTVAAPSVFIFPPSDEQLKSGTASVVCLLNNFYPREAKVQWKVDNALQSGNSQESVTEQDSKDSTYSLSSTLTLSKADYEKHKVYACEVTHQGLSSPVTKSFNRGECGGGGSGGGGSGGGGSGGGGSGGGGSGGGGSGGGGSGGGGSGGGGSGGGGSGGGGSGGGGSGGGGSGGGGSQVQLVQSGAEVKKPGASVKVSCKASGYTFTGHDMHWVRQAPGQGLEWMGIINPSGGSTSYAQKFQGRVTMTRDTSTSTVYMELSSLRSEDTAVYYCARANSLRYYYGMDVWGQGTMVTVSSASTKGPSVFPLAPSSKSTSGGTAALGCLVKDYFPEPVTVSWNSGALTSGVHTFPAVLQSSGLYSLSSVVTVPSSSLGTQTYICNVNHKPSNTKVDKKVEPKSCGGGGSGGGGSGGGGSGGGGSGGGG[not shown - about 200 residues]
chain 2: [not shown - human IgG1 Fc]GGGGSGGGGSGGGGSGGGGSGGGGSGGGGSGGGGSGGGGSGGGGSGGGGSGGGGSGGGGSGGGGSGGGGS[not shown - human IgG1 Fc]GGGGSGGGGSGGGGSGGGGSGGGGSGGSSQIRQNYSTDVEAAVNSLVNLYLQASYTYLSLGFYFDRDDVALEGVSHFFRELAEEKREGYERLLKMQNQRGGRALFQDIKKPAEDEW
chain 3: DIQMTQSPSSLSASVGDRVTITCRASQSVSSWLAWYQQKPGKAPKLLIYAASSLQSGVPSRFSGSGSGTDFTLTISSLQPEDFATYYCQQGYTTPYTFGQGTKLEIKRTVAAPSVFIFPPSDEQLKSGTASVVCLLNNFYPREAKVQWKVDNALQSGNSQESVTEQDSKDSTYSLSSTLTLSKADYEKHKVYACEVTHQGLSSPVTKSFNRGECGGGGSGGGGSGGGGSGGGGSGGGGSGGGGSGGGGSGGGGSGGGGSGGGGSGGGGSGGGGSGGGGSGGGGSQVQLVQSGAEVKKPGASVKVSCKASGYTFTGHDMHWVRQAPGQGLEWMGIINPSGGSTSYAQKFQGRVTMTRDTSTSTVYMELSSLRSEDTAVYYCARANSLRYYYGMDVWGQGTMVTVSSASTKGPSVFPLAPSSKSTSGGTAALGCLVKDYFPEPVTVSWNSGALTSGVHTFPAVLQSSGLYSLSSVVTVPSSSLGTQTYICNVNHKPSNTKVDKKVEPKSCGGGGSGGGGSGGGGSGGGGSGGGGSGKTPDAMKAAMALEKKLNQALLDLHALGSARTDPHLCDFLETHFLDEEVKLIKKMGDHLTNLHRLGGPEAGLGEYLFERLTLRHD
B2: MB 158 (other)
chain 1: DIQMTQSPSSLSASVGDRVTITCRASQSISRYLNWYQQKPGKAPKLLIYDASNLESGVPSRFSGSGSGTDFTLTISSLQPEDFATYYCQQANSFPLTFGGGTKVDIKRTVAAPSVFIFPPSDEQLKSGTASVVCLLNNFYPREAKVQWKVDNALQSGNSQESVTEQDSKDSTYSLSSTLTLSKADYEKHKVYACEVTHQGLSSPVTKSFNRGECGGGGSGGGGSGGGGSGGGGSGGGGSGGGGSGGGGSGGGGSGGGGSGGGGSGGGGSGGGGSGGGGSGGGGSQVQLVQSGAEVKKPGASVKVSCKASGYTFTGYYMHWVRQAPGQGLEWMGWINPLNGGTNFAPKFQGRVTMTRDTSTSTVYMELSSLRSEDTAVYYCARDPGGSYSNDAFDIWGQGTLVTVSSASTKGPSVFPLAPSSKSTSGGTAALGCLVKDYFPEPVTVSWNSGALTSGVHTFPAVLQSSGLYSLSSVVTVPSSSLGTQTYICNVNHKPSNTKVDKKVEPKSCGGGGSGGGGSGGGGSGGGGSGGGG[not shown - about 200 residues]
chain 2: B1 chain 2
chain 3: DIQMTQSPSSLSASVGDRVTITCRASQSISRYLNWYQQKPGKAPKLLIYDASNLESGVPSRFSGSGSGTDFTLTISSLQPEDFATYYCQQANSFPLTFGGGTKVDIKRTVAAPSVFIFPPSDEQLKSGTASVVCLLNNFYPREAKVQWKVDNALQSGNSQESVTEQDSKDSTYSLSSTLTLSKADYEKHKVYACEVTHQGLSSPVTKSFNRGECGGGGSGGGGSGGGGSGGGGSGGGGSGGGGSGGGGSGGGGSGGGGSGGGGSGGGGSGGGGSGGGGSGGGGSQVQLVQSGAEVKKPGASVKVSCKASGYTFTGYYMHWVRQAPGQGLEWMGWINPLNGGTNFAPKFQGRVTMTRDTSTSTVYMELSSLRSEDTAVYYCARDPGGSYSNDAFDIWGQGTLVTVSSASTKGPSVFPLAPSSKSTSGGTAALGCLVKDYFPEPVTVSWNSGALTSGVHTFPAVLQSSGLYSLSSVVTVPSSSLGTQTYICNVNHKPSNTKVDKKVEPKSCGGGGSGGGGSGGGGSGGGGSGGGGSGKTPDAMKAAMALEKKLNQALLDLHALGSARTDPHLCDFLETHFLDEEVKLIKKMGDHLTNLHRLGGPEAGLGEYLFERLTLRHD
B3: MB 180 (other)
chain 1: DIVMTQSPLSLPVTPGEPASISCRSSQSLLHSNGYNYLDWYLQKPGQSPQLLIYAASSLQSGVPDRFSGSGSGTDFTLKISRVEAEDVGVYYCQQYYSSPYTFGQGTKLEIKRTVAAPSVFIFPPSDEQLKSGTASVVCLLNNFYPREAKVQWKVDNALQSGNSQESVTEQDSKDSTYSLSSTLTLSKADYEKHKVYACEVTHQGLSSPVTKSFNRGECGGGGSGGGGSGGGGSGGGGSGGGGSGGGGSGGGGSGGGGSGGGGSGGGGSGGGGSGGGGSGGGGSGGGGSQVQLVQSGAEVKKPGSSVKVSCKASGYTFTSYAMHWVRQAPGQGLEWMGRISPRSGGTKYAQRFQGRVTITADESTSTAYMELSSLRSEDTAVYYCAREAVAGTHPQAGDFDLWGRGTLVTVSSASTKGPSVFPLAPSSKSTSGGTAALGCLVKDYFPEPVTVSWNSGALTSGVHTFPAVLQSSGLYSLSSVVTVPSSSLGTQTYICNVNHKPSNTKVDKKVEPKSCGGGGSGGGGSGGGGSGGGGSGGGG[not shown - about 200 residues]
chain 2: B1 chain 2
chain 3: DIVMTQSPLSLPVTPGEPASISCRSSQSLLHSNGYNYLDWYLQKPGQSPQLLIYAASSLQSGVPDRFSGSGSGTDFTLKISRVEAEDVGVYYCQQYYSSPYTFGQGTKLEIKRTVAAPSVFIFPPSDEQLKSGTASVVCLLNNFYPREAKVQWKVDNALQSGNSQESVTEQDSKDSTYSLSSTLTLSKADYEKHKVYACEVTHQGLSSPVTKSFNRGECGGGGSGGGGSGGGGSGGGGSGGGGSGGGGSGGGGSGGGGSGGGGSGGGGSGGGGSGGGGSGGGGSGGGGSQVQLVQSGAEVKKPGSSVKVSCKASGYTFTSYAMHWVRQAPGQGLEWMGRISPRSGGTKYAQRFQGRVTITADESTSTAYMELSSLRSEDTAVYYCAREAVAGTHPQAGDFDLWGRGTLVTVSSASTKGPSVFPLAPSSKSTSGGTAALGCLVKDYFPEPVTVSWNSGALTSGVHTFPAVLQSSGLYSLSSVVTVPSSSLGTQTYICNVNHKPSNTKVDKKVEPKSCGGGGSGGGGSGGGGSGGGGSGGGGSGKTPDAMKAAMALEKKLNQALLDLHALGSARTDPHLCDFLETHFLDEEVKLIKKMGDHLTNLHRLGGPEAGLGEYLFERLTLRHD
B4: MB 192 (other)
chain 1: DIVMTQSPLSLPVTPGEPASISCRSSQSLLHSNGYNYLDWYLQKPGQSPQLLIYAASSLQSGVPDRFSGSGSGTDFTLKISRVEAEDVGVYYCMQALQTPYTFGQGTKLEIKRTVAAPSVFIFPPSDEQLKSGTASVVCLLNNFYPREAKVQWKVDNALQSGNSQESVTEQDSKDSTYSLSSTLTLSKADYEKHKVYACEVTHQGLSSPVTKSFNRGECGGGGSGGGGSGGGGSGGGGSGGGGSGGGGSGGGGSGGGGSGGGGSGGGGSGGGGSGGGGSGGGGSGGGGSQVQLVQSGAEVKKPGSSVKVSCKASGGTFSSYAISWVRQAPGQGLEWMGWINPNSGGANYAQKFQGRVTITADESTSTAYMELSSLRSEDTAVYYCSTYYYDSSGYSTDYWGQGTLVTVSSASTKGPSVFPLAPSSKSTSGGTAALGCLVKDYFPEPVTVSWNSGALTSGVHTFPAVLQSSGLYSLSSVVTVPSSSLGTQTYICNVNHKPSNTKVDKKVEPKSCGGGGSGGGGSGGGGSGGGGSGGGG[not shown - about 200 residues]
chain 2: B1 chain 2
chain 3: DIVMTQSPLSLPVTPGEPASISCRSSQSLLHSNGYNYLDWYLQKPGQSPQLLIYAASSLQSGVPDRFSGSGSGTDFTLKISRVEAEDVGVYYCMQALQTPYTFGQGTKLEIKRTVAAPSVFIFPPSDEQLKSGTASVVCLLNNFYPREAKVQWKVDNALQSGNSQESVTEQDSKDSTYSLSSTLTLSKADYEKHKVYACEVTHQGLSSPVTKSFNRGECGGGGSGGGGSGGGGSGGGGSGGGGSGGGGSGGGGSGGGGSGGGGSGGGGSGGGGSGGGGSGGGGSGGGGSQVQLVQSGAEVKKPGSSVKVSCKASGGTFSSYAISWVRQAPGQGLEWMGWINPNSGGANYAQKFQGRVTITADESTSTAYMELSSLRSEDTAVYYCSTYYYDSSGYSTDYWGQGTLVTVSSASTKGPSVFPLAPSSKSTSGGTAALGCLVKDYFPEPVTVSWNSGALTSGVHTFPAVLQSSGLYSLSSVVTVPSSSLGTQTYICNVNHKPSNTKVDKKVEPKSCGGGGSGGGGSGGGGSGGGGSGGGGSGKTPDAMKAAMALEKKLNQALLDLHALGSARTDPHLCDFLETHFLDEEVKLIKKMGDHLTNLHRLGGPEAGLGEYLFERLTLRHD

Target: SARS-CoV-2 Spike on pseudotyped virus (PsV) (SARS-CoV-2)
Experiment: cell-based or functional assay

| Binder | IC50 SARS-CoV2 PsV, MB [µg/mL] |
| --- | --- |
| B1 | 0.22 |
| B2 | 0.1 |
| B3 | 0.89 |
| B4 | 0.79 |

Target: SARS-CoV-2 Spike on pseudotyped virus (PsV) (SARS-CoV-2)
Experiment: cell-based or functional assay
Remark: another data set of the same source

| Binder | Median IC50, SARS-CoV-2 PsV neutralization [µg/mL] |
| --- | --- |
| B1 | 0.22 |
| B2 | 0.1 |
| B3 | 0.89 |
| B4 | 0.79 |
